The other results are listed elsewhere or left out.

This test concerns the target T1, OsWOX13 (Oryza sativa, UniProt Q5QMM3 1-267).
T1 sequence: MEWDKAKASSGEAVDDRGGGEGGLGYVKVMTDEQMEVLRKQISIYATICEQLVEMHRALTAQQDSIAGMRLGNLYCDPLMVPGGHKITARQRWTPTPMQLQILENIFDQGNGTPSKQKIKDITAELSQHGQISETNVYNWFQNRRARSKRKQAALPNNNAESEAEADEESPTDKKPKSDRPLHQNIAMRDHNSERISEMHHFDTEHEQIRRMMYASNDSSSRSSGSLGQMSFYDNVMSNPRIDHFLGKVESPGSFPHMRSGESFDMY
Nature of the test: protein-binding microarray (RPBM); PBS, 2% BSA, 51.3 ng/ul salmon testes DNA, 50 uM zinc acetate, 200 nM TF, 25 C, 1 h; high values mean tight binding. As to conditions: protein: recombinant; tags: N-terminal polyhistidine and DsRed monomer fusion (pET32a); label: CyDye5-dUTP incorporated in the synthesized complementary strand; 3' TTTTT single-stranded linker to array surface; dsDNA, one strand shown. An outline of the steps: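 Transcription factors were made in E. coli BL21-CodonPlus as N-terminal fusions to a polyhistidine tag and DsRed, then purified on Ni–NTA. After primer extension with Cy5-dUTP and blocking with 2% BSA, a custom Agilent array was exposed for 1 h at 25 °C to 200 nM protein in PBS, 2% BSA, salmon testes DNA and 50 µM zinc acetate. Washed arrays were scanned on an Axon 4000B, and the binding signal is per-feature fluorescence intensity in arbitrary units.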
Consider “TTGGTTTTGGATTAATTGGTTCATCATGACCATTACGACACGGAGTCACCTAGTGCAG”, for which the binding signal is 13400 fluorescence intensity (a.u.).
With “GTCCTATTTGACGCTTTGATTAGACAACGCTTTGTCAATTCGGAGTCACCTAGTGCAG” the figure was 12900 fluorescence intensity (a.u.); with “AAGACGGTAATAGACTGTGCGAGTTGAACATGCAACTCTACGGAGTCACCTAGTGCAG”, 7360 fluorescence intensity (a.u.); with “TCCATGATTAGTCATAAAGTGTTACAGTAATCTACATGTGCGGAGTCACCTAGTGCAG”, 30400 fluorescence intensity (a.u.).
As for “TAACTAATTATTAATTGTTTTCCTATCATTTGATTCATTGCGGAGTCACCTAGTGCAG”, the figure is 53200 fluorescence intensity (a.u.); as for “TGCAATTTGAGTGATTTTGATGTAGGACACCACCTTGTGACGGAGTCACCTAGTGCAG”, 9870 fluorescence intensity (a.u.).
“ACTACAAATTAATTATATCTCCGTTCTTTTCAGCCTATTCCGGAGTCACCTAGTGCAG”: the binding signal is 32200 fluorescence intensity (a.u.).
As for “CAACAACTTAATTTGTCATAGAGAGAAAGATTGTAGGCAACGGAGTCACCTAGTGCAG”, the figure is 4500 fluorescence intensity (a.u.).
With “TCATATGATTAGGATATATCACATCTCATTATATTATATGCGGAGTCACCTAGTGCAG” the figure was 17800 fluorescence intensity (a.u.); with “AGTTGATTTTGTACTCCTAAAATTTACAGTCATTCTTTACCGGAGTCACCTAGTGCAG”, 11100 fluorescence intensity (a.u.).
With “GATACTCCAATCATCAATGTACAAGTATAAATACTTCGTTCGGAGTCACCTAGTGCAG” the figure was 7880 fluorescence intensity (a.u.).
Regarding “CTTATTACAAAATATAATTATCATTTATTTTATCATTACACGGAGTCACCTAGTGCAG”, the binding signal is 6650 fluorescence intensity (a.u.).
As for “CTCTGATCAATCTCTCTAGTATCCTCCTGCTCATTTAGCACGGAGTCACCTAGTGCAG”, the figure is 3760 fluorescence intensity (a.u.); as for “CAGTTCCGATTGACAAGTCACGTTGACAATTCAAGTCAGACGGAGTCACCTAGTGCAG”, 18200 fluorescence intensity (a.u.); as for “CAAGCTAATCACTCATGCTAAAAGTTTTGTGTCCATTCTTCGGAGTCACCTAGTGCAG”, 3710 fluorescence intensity (a.u.).
As for “TAATAATTATAATTAATTACCGGAGTTACTTATTCTAAACCGGAGTCACCTAGTGCAG”, the figure is 60400 fluorescence intensity (a.u.); as for “CTCCCAATCACTTTCCCCAAACACAGACCCTCTACAGTCCCGGAGTCACCTAGTGCAG”, 14600 fluorescence intensity (a.u.).
As for “ATTGGAATTTATTAATTAAAATTAGATTTTCTTTTCAAGACGGAGTCACCTAGTGCAG”, the figure is 20800 fluorescence intensity (a.u.); as for “GTGTTTGATTTGCCTCTCTTAAGAACCACTGTGAAAACATCGGAGTCACCTAGTGCAG”, 6450 fluorescence intensity (a.u.).
Turning to “ATAGATAGCCAAATCACAATCATCCAATGCCAAGCAAGGACGGAGTCACCTAGTGCAG”, the binding signal was 6920 fluorescence intensity (a.u.).
As for “ATGTTTCGCGCTGGTAATTTACTGTATATATAATAATAATCGGAGTCACCTAGTGCAG”, the figure is 4000 fluorescence intensity (a.u.).
With “TCGCAATCAGCCAATCAATTCATGCCCATTATTACATATGCGGAGTCACCTAGTGCAG” the figure was 34100 fluorescence intensity (a.u.); with “ATGCGTCGTCTCTGGCGAATTAATTGGCCAGGTCACCAGGCGGAGTCACCTAGTGCAG”, 4220 fluorescence intensity (a.u.); with “ATGTGCCAATATTATTTCAATTAATGGGATCGTTCAGGTCCGGAGTCACCTAGTGCAG”, 5370 fluorescence intensity (a.u.).
With “CATGACAGCGTGCTTGGATCAACCGCTTTTGTCTTCTCCACGGAGTCACCTAGTGCAG” the figure was 3780 fluorescence intensity (a.u.); with “ATGATAGATTAAATCAAATTATCATGTTATGGGTATAGCCCGGAGTCACCTAGTGCAG”, 53200 fluorescence intensity (a.u.); with “ACTAATTTTGTCTATTGGATAGCCAGAAAACATGCATCAGCGGAGTCACCTAGTGCAG”, 21000 fluorescence intensity (a.u.).
As for “ATTCAATTATATCCAACTATTACCAAACATCTTATTAGTTCGGAGTCACCTAGTGCAG”, the binding signal was 14800 fluorescence intensity (a.u.).
As for “AGCAAATCAAAGAATTCCACATCACACGAAAGACGTTACTCGGAGTCACCTAGTGCAG”, the binding signal was 3670 fluorescence intensity (a.u.).
As for “AGCCTAATTAGTCCATGATTAGCTATAAGTGCTACATTAACGGAGTCACCTAGTGCAG”, the figure is 47700 fluorescence intensity (a.u.).
As for “GTTATAATTTATTTTCCGCCTTTAACTAGTACAATCTTTTCGGAGTCACCTAGTGCAG”, the figure is 13000 fluorescence intensity (a.u.); as for “TTTGATTTTCGTCAGCAAGCTATTCGACAAGAGCTCCTTTCGGAGTCACCTAGTGCAG”, 6920 fluorescence intensity (a.u.); as for “ACAAATTAAACTGAAAATAGTTATCGCACATTCGCATATACGGAGTCACCTAGTGCAG”, 12600 fluorescence intensity (a.u.).
As for “TAAATTGACATGATTAATTGAAACCACGCCATTCAGCAATCGGAGTCACCTAGTGCAG”, the figure is 65500 fluorescence intensity (a.u.); as for “TAGAAGTCAATCATCAGGCATCAGCGAGGTAGCTGCATATCGGAGTCACCTAGTGCAG”, 7940 fluorescence intensity (a.u.); as for “GGCTGACAGGCACTATATGTGAGCATCCAAGGAACTTGCGCGGAGTCACCTAGTGCAG”, 10400 fluorescence intensity (a.u.).
Turning to “CGGTCATCAATCTCATCAGCTACATCCCAAAGGGGAATCACGGAGTCACCTAGTGCAG”, the binding signal is 5580 fluorescence intensity (a.u.).
As for “AAGGAGTGACAATTAAGTGAGTGGATGCGACAATGCTGTACGGAGTCACCTAGTGCAG”, the figure is 4530 fluorescence intensity (a.u.).
As for “GAATTGATCAATGCTCATCACTGTCACTTGAGAACAGATGCGGAGTCACCTAGTGCAG”, the figure is 4400 fluorescence intensity (a.u.).
As for “ATTCATAAATTAATTTTCGTTGCTTTCTTCATTTTATTGTCGGAGTCACCTAGTGCAG”, the figure is 25100 fluorescence intensity (a.u.); as for “AAATTAATGATATATTCACATCGTGAAACAAAGTGATGTTCGGAGTCACCTAGTGCAG”, 6540 fluorescence intensity (a.u.); as for “GATAATTTTGCTGAGTTATGTACTTATGTAACACCTTTTGCGGAGTCACCTAGTGCAG”, 12100 fluorescence intensity (a.u.).

The values above are taken from article PMC7819943, “Rice protein-binding microarrays: a tool to detect cis-acting elements near promoter regions in rice”.
